Measurements reported in publication PMC5312077.
No constants are given. Whether binding was seen depends on the method and setting. Binding seen in cells or lysates may run through a third protein. Some results given as binding are weak or reduced against the parent protein; the word gives no strength. For part of these data: Tags and fused reporters may be left off the sequences shown.

By UniProt entry, the sequences of proteins in these tests, tags left out. Where a name states a change or a piece, a line headed by the entry shows the natural chain unless it says otherwise.
UniProt P27986: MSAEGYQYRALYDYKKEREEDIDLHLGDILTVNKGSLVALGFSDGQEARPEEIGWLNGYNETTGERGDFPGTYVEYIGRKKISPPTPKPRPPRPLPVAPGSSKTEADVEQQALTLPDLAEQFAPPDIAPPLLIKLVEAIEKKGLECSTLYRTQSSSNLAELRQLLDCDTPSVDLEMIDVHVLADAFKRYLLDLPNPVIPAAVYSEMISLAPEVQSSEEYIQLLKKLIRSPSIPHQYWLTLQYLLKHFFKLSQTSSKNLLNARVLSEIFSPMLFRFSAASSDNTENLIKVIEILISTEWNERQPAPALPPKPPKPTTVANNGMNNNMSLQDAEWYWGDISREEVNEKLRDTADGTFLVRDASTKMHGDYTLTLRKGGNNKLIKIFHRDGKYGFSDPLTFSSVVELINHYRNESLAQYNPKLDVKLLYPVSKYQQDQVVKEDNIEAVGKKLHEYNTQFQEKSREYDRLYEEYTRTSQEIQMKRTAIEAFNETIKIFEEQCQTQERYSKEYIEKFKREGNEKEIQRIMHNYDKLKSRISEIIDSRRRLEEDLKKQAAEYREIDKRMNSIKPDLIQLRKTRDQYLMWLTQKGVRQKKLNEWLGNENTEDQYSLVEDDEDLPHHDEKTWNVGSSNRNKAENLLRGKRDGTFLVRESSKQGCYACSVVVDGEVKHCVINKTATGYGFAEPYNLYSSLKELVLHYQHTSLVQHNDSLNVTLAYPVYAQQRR

Experiments:
[1] = target: GST tagged full length PAK4 (UniProt O96013); assay: pull-down; PaTu8988T cell lysates incubated with GST or GST-PAK4; pull-down probed for endogenous p85alpha; only the target purified
[2] = target: T1, GST tagged PAK4PxxP (proline rich region of PAK4, amino acids 31-322) (UniProt O96013); assay: pull-down; GST-PAK4 or GST-PAK4 derivatives on glutathione beads as bait; lysates of HEK293T cells expressing GFP-tagged p85alpha constructs; blot with anti-GFP; only the target purified
T1 sequence: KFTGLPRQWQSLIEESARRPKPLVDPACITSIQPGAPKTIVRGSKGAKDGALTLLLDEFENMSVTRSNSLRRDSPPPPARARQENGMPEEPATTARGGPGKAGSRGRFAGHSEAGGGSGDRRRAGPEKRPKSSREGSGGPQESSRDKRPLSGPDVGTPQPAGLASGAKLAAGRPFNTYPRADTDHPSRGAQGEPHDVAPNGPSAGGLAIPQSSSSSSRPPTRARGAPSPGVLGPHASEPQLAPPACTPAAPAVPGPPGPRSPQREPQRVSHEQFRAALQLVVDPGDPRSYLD

[3] = target: T2, GST tagged PAK4ΔPxxP (PAK4 with the PXXP region deleted, amino acids 1-34 plus 319-591) (UniProt O96013); assay: as above
T2 sequence: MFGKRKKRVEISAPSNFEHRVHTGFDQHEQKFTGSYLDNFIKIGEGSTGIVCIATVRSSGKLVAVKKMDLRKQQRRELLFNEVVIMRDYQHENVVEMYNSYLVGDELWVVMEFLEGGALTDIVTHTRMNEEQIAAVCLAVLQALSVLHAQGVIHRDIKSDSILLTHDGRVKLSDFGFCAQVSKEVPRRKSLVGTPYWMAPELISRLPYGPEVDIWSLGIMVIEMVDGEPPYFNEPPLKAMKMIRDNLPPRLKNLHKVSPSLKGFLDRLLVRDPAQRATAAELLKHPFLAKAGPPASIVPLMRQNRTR

[4] = target: GST tagged full length PAK4 (UniProt O96013); assay: as above

binding [1] | binding [2] | binding [3] | binding [4] | Substance
binds |  |  |  | endogenous p85α (from UniProt P27986 1-724)
 | no binding | no binding | no binding | GFP-p85alpha ΔSH3 (missing the SH3 domain, amino acids 80-724) (from UniProt P27986 80-724) (domain or fragment)
 | binds | no binding | binds | GFP-p85alpha-SH3 domain alone (amino acids 1-85) (from UniProt P27986 1-85) (domain or fragment)
 | binds |  | binds | GFP tagged full length p85α (regulatory subunit of PI3K) (from UniProt P27986 1-724)
